According to the supplement of paper PMC11417369:
± gives the standard deviation of the averaged measurements. This is one part of the list.

Test system: PfAP2-I AP2 domain 3 (GST-tagged)
Assay: gcPBM binding intensity (ln(normalized median fluorescence intensity)); higher = stronger DNA binding
Outline: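 Plasmodium falciparum DNA-binding domains carrying a GST tag were expressed in E. coli and applied for 1 h, at about 25 μg on average, to an Agilent 4 × 180k array. The array held primer-extended double-stranded 36-bp intergenic genomic probes together with negative controls, and binding took place in 1× PBS with 1% milk, 0.2 mg/ml BSA, 0.5% salmon testes DNA and 0.03% Triton X-100. An Alexa488 anti-GST antibody detected bound protein, and the array was scanned at 488 nm. Binding intensity is taken as the highest Masliner-normalised natural-log median intensity across replicate spots of either probe orientation.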

Sequence | gcPBM binding intensity (ln)
AATCAATAAATAAAAACATGCATATATATATATATA [TGCATGCA_site438] | 9.46 ± 0.43
AAAAATAAATTTAGTTGTACTTTATTATTTTAAATA [XGTACX_site3067] | 7.61 ± 0.39
CATTAATAAAAAAAAAGTACAAAAAATATATATATT [XGTACX_site2091] | 7.88 ± 0.54
AAAATAAAAATATTCACACATACAAAAATTATACAA [CACACA_site5136] | 7.54 ± 0.6
ATAATATATATATATAGTACATATATATAATATTCT [XGTACX_site2445] | 7.735 ± 0.049
ATTTTTTTACTGTAACCATATTTTTCCCTTTTATTC [CACACA_negctrl_site1143] | 7.95 ± 0.79
CCATTAAATACATACACACCCACACCCAAAAAAAAA [CACACA_site4633] | 9.29 ± 0.39
AAAAAAAAAAATATAACACACAAAAAATTGTATCGA [CACACA_site1144] | 7.53 ± 0.26
ACAAAATTTACAAAATGTACATATTGTAGATATTGT [XGTACX_site7618] | 7.55 ± 0.52
ATATAGTAAAATTATACACACATGAATTTTCCCATA [CACACA_site3113] | 7.75 ± 0.52
TAAAAATATATACATACATGCATACATATATATGTA [TGCATGCA_site774] | 7.56 ± 0.44
TTTTTAACATATCATACACACAACAACTTTTTATAG [CACACA_site1962] | 7.9 ± 0.55
CAAGCCCTTCTGCTTACACACAGTAATTATTGTGTA [CACACA_site2953] | 7.52 ± 0.78
ATTATATATACACGCACACACACTTATATATATATA [CACACA_site9093] | 9.34 ± 0.3
CATTCATTTATTAATTGTACTTTTAAGGTTAAATAA [XGTACX_site5838] | 7.6 ± 0.26
TAATTTATTATATTTTGTACGTAAAATTATTATTGT [XGTACX_site8155] | 7.87 ± 0.28
TAGGAAAAGAAAAGCACACACATAAATAAATATATA [CACACA_site504] | 7.96 ± 0.26
AATATATATTTATATTGTACATATATATATATTTCT [XGTACX_site2603] | 7.55 ± 0.34
AATATTTATTTTACATGTACTTATTTTTCTTTTAAC [XGTACX_site3631] | 8.22 ± 0.21

Sequence | gcPBM binding intensity (ln)
CACATACAGACATACACACACATATAGATTAATATA [CACACA_site6399] | 7.93 ± 0.23
AATAAGAAATGTAAATGTACATAAAAAAAAGTATAT [XGTACX_site3573] | 8.2 ± 0.68
TATATATATATATTATGTACATATATATTAAATATG [XGTACX_site2494] | 8.91 ± 0.092
TTAGGGTTTTATAAATGTACTTATTTATACATCCTC [XGTACX_site5769] | 7.64 ± 0.46
ATTTTTTAACATATCATACACACAACCACTTTTTAT [CACACA_site1961] | 8.35 ± 0.23
TAAACATTTTTGCACGCACACAAAAAAAAAATAAAA [CACACA_site167] | 9.94 ± 0.42
TATTTATATTTTAACACACACATATTTATATTTATA [CACACA_site7324] | 7.92 ± 0.39
ATTTATTCATTTGGGTGTACTATTTAAAAAAAACAA [XGTACX_site498] | 8.59 ± 0.26
TATATATAATTTTATACATGCACATATTATATATAT [TGCATGCA_site1036] | 8.65 ± 0.67
TATATTTTTTAAACCACACACAATATAGAGTATAAT [CACACA_site4510] | 7.98 ± 0.48
TTTATATACTATTCAAAGTGATAAATAATATATGAA [TGCATGCA_negctrl_site352] | 7.49 ± 0.56
TATAAATAAAGACACACACACATATAAATAAATATA [CACACA_site7155] | 7.87 ± 0.42
ATTTATTTATTAAGATGTACTTATTAAAAATAATAA [XGTACX_site7392] | 7.54 ± 0.16
AAAAAAAAAAAACATACACACAATAAAATAGGGGTA [CACACA_site2399] | 7.87 ± 0.42
AAAAAAAAAAAACATACACACAAATATGTACATACA [CACACA_site7807] | 7.75 ± 0.3
TATATATTAATATATGCATGTACGATTATTATAATA [TGCATGCA_site446] | 7.95 ± 0.48
TAAATACAAAAATGTACACACATATAAATATTTTTA [CACACA_site7612] | 7.76 ± 0.15
AATAAAAATCCACAAGCACACAAATGTACTTATATA [CACACA_site8783] | 7.74 ± 0.49
ACAAGATGATGGAAATGTACATAAAAAGAATCATAT [XGTACX_site8682] | 8.51 ± 0.88

Sequence | gcPBM binding intensity (ln)
TTTTTTTTTATATTTAGTACATATATATTATTATAT [XGTACX_site3334] | 7.8 ± 0.61
AACACTACATAAAACTGTACAATAGTATTTTATTAT [XGTACX_site996] | 7.67 ± 0.47
CTTAGTGTATTTGAATGTACGCATAAATATAATTAT [XGTACX_site2830] | 7.84 ± 0.4
ATTATTAAAATGATATGTACGCACATAATATACATA [XGTACX_site3236] | 8.09 ± 0.4
ATAATATTTTGAAACGGTACACTTTTAAAATACACT [XGTACX_site4423] | 7.88 ± 0.42
AAAATAAGGAAAAAAAAAAAAAAAAAAAAAAAAAAG [CACACA_negctrl_site1291] | 8.04 ± 0.7
TATTGAAACGTATAGACACACATATGATATATATAT [CACACA_site3226] | 9.05 ± 0.19
ATTTATTTATTTATATGTACTTATATATGTATTTTC [XGTACX_site6269] | 7.83 ± 0.65
TGTATTTAAAATGGTTGTACATAAATAAAAATAAAA [XGTACX_site7771] | 8.1 ± 0.55
AAAGTGTTAACCTAATCTTTAGTTTTTAAACAATAT [CACACA_negctrl_site841] | 7.49 ± 0.59
TTAATTAAATATTATACACACAAAAAAATAACTTTA [CACACA_site6197] | 7.58 ± 0.61
ATGTATTAAAAAAATTGTACTATAAAATGTAACCGC [XGTACX_site8083] | 7.92 ± 0.58
AAGGCAAGCACTTAAACATGCATATAATAATATCAT [TGCATGCA_site698] | 8.1 ± 0.39
ATAATATATATATATGCATGTACATATTTATCTTTA [TGCATGCA_site32] | 7.79 ± 0.56
AAAAAAAAAAAAAACATACACACAAATATATACATA [CACACA_site4010] | 8.1 ± 0.38
ATATTATTTTAAAGTACACACATATATTAATATATA [CACACA_site2315] | 8.2 ± 0.23
TATACATACAGACCCACACACAAAAAAAAAAAAAAA [CACACA_site6536] | 8.05 ± 0.54
ATATATATATATATATGTACATATATATATGTATAT [XGTACX_site3959] | 9.47 ± 0.79
